Here are results for three molecules from patent publication US11135177B2, “Methods of making and using compositions comprising flavonoids” (VIZURI HEALTH SCIENCES CONSUMER HEALTHCARE, INC., priority 2009, dated 2021).

For orientation: solubility means the dissolved amount per volume that the medium holds.

Data set [1] can be described thus: Apigenin solubility testing in solvents (Examples 2, 4). The class given is physicochemical. As to conditions: for solubility in alcohol solvents: isopropyl alcohol, butylene glycol, glycerin.
Data set [2] in a line: Solubility in molten vitamins B5 / B3. The settings on record: molten D,L Panthenol, approximately 65° C.
Data set [3] has as its system skin cancer. As to conditions: anti skin cancer activities; cited from earlier work.
Data set [4] has as its system skin cancer. The settings on record: topical application prior to UVB-irradiation, mouse; cited from earlier work.
The conditions of data set [5]: cited from earlier work.
[6] abbreviates: ethoxydiglycol, propylene glycol.

Read-outs that look alike come from different tables or passages of the source. Bounds are passed on as bounds.

On to `O=c1cc(-c2ccc(O)cc2)oc2cc(O)cc(O)c12` [hydrated apigenin], for which the “solubility in alcohol solvents” value in data set [1] (setting [6]) is recorded as “limited solubility”. Also, the “solubility in molten D,L Panthenol” value in data set [2] is reported as “readily dissolved”.

On to `O=c1cc(-c2ccc(O)cc2)oc2cc(O)cc(O)c12` [apigenin, 4′,5,7,-trihydroxyflavone], for which the “concentration at which it acts effectively” value in data set [3] was less than 50 µM. For the same molecule, in data set [4], the “reduction of the incidence of skin cancer” value is recorded as “up to 90%”. In data set [1] (acetone), the solubility in acetone entry is “less than 2 mg/ml”. The solubility in ethanol entry in data set [1] (ethanol) is “less than 2 mg/ml”. Besides, the solubility in ethoxydiglycol result in data set [1] (ethoxydiglycol) is recorded as “greater than 10 mg/ml”. Besides, the “solubility in alcohol solvents” value in data set [1] (setting [6]) was “essentially insoluble”. Moreover, the solubility in data set [1] (propylene glycol, organic solvent or mixture) was less than 1 mg/mL. The solubility in water entry in data set [1] (water) is “negligible solubility”; in data set [5] (water, Li et al. 1997) it was less than 0.005 mg/mL. In data set [5] (DMSO, reported in the literature), the “dimethylsulfoxide (DMSO) solubility” value is more than 100 mg/mL.

`O=c1cc(-c2ccc(O)c(O)c2)oc2cc(O)cc(O)c12` [luteolin, 3′,4′,5,7-tetrahydroxyflavone]: the “solubility in alcohol solvents” value in data set [1] (setting [6]) is given as “essentially insoluble”.
